We go through 115 sequences from the BET-seq Pho4 binding data (Le et al. 2018).

The list shows a part of the results. The energies were worked out here from pooled read counts, against the library average; single values are noisy.

The assay addresses T1, Pho4 (S. cerevisiae) (UniProt P07270).
T1 sequence: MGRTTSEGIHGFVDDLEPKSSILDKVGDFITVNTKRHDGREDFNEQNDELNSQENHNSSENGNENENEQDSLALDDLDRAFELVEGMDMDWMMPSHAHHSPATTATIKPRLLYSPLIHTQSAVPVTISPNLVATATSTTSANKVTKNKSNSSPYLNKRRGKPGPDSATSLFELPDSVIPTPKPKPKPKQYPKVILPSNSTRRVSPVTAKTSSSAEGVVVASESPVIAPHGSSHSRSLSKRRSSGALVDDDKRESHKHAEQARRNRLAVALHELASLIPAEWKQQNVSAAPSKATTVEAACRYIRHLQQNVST
Kind of assay: relative binding free energy (BET-seq); higher = weaker binding. The following applies: reference: library average.
Turning to AAGTTCACGTGATTCG, the “relative binding free energy” value came out at 0.29 kcal/mol.
With AAGCTCACGTGATGTG the figure was 0.31 kcal/mol.
The same measure for ATGGGCACGTGATAGG: -0.04 kcal/mol; for AATCGCACGTGTTGGT: -0.11 kcal/mol; for CCGGTCACGTGGTCGG: 0.02 kcal/mol.
GTTGTCACGTGAGAGT: the “relative binding free energy” value was 0.31 kcal/mol.
With TGGGTCACGTGGTCGA, the “relative binding free energy” value amounted to 0.05 kcal/mol.
With GATCGCACGTGGTGTA the figure was 0.03 kcal/mol; with ATGCGCACGTGGAGTG, -0.27 kcal/mol.
As for GATATCACGTGTGCGG, the “relative binding free energy” value turned out to be 0.13 kcal/mol.
As to TGAAACACGTGTGGGG, the “relative binding free energy” value stood at 0.09 kcal/mol.
The same measure for CGAATCACGTGTTTAG: 0.28 kcal/mol; for TTAGGCACGTGACTCG: 0.05 kcal/mol.
As for TGGGTCACGTGAAGTC, the “relative binding free energy” value turned out to be 0.24 kcal/mol.
As to TATGTCACGTGGTTCG, the “relative binding free energy” value is 0.11 kcal/mol.
For TAAGTCACGTGCGTAA, the “relative binding free energy” value came out at 0.16 kcal/mol.
The same measure for CGGTACACGTGGCTGT: -0.02 kcal/mol; for AAGGTCACGTGAGGCA: 0.18 kcal/mol.
With GTTGTCACGTGGCTGA the figure was 0.19 kcal/mol.
With GTGTTCACGTGTTATT the figure was 0.17 kcal/mol; with AGGTACACGTGTGGCT, 0.13 kcal/mol.
In the case of GGTCTCACGTGTGAGG, the “relative binding free energy” value came out at 0.21 kcal/mol.
With TTATGCACGTGAAGTT the figure was 0.15 kcal/mol.
With GGTGACACGTGAGCGG the figure was 0.15 kcal/mol.
On to ACGTGCACGTGATATG, for which the “relative binding free energy” value amounted to 0.06 kcal/mol.
With ATAGACACGTGGAGGG the figure was -0.04 kcal/mol.
For the sequence CTAGGCACGTGGATTG, the “relative binding free energy” value was -0.09 kcal/mol.
The same measure for TTATTCACGTGGCGTG: 0.2 kcal/mol.
Regarding TAAAGCACGTGTAGGA, the “relative binding free energy” value is -0.08 kcal/mol.
For ATGGTCACGTGGCCAG, the “relative binding free energy” value is 0.01 kcal/mol.
As to TCGATCACGTGGGCTG, the “relative binding free energy” value stood at 0.01 kcal/mol.
As for TTTTACACGTGGCAAT, the “relative binding free energy” value was found to be 0.07 kcal/mol.
With CGGCACACGTGTTGTG the figure was 0.05 kcal/mol; with GATTCCACGTGGAGTT, 0.24 kcal/mol; with AGTGACACGTGGTATT, -0.01 kcal/mol.
The same measure for GGTATCACGTGCTCGT: 0.15 kcal/mol; for GGCAGCACGTGTTAGC: 0.2 kcal/mol; for TTGATCACGTGTCGAT: 0.33 kcal/mol.
The same measure for CGTATCACGTGTGAGC: 0.26 kcal/mol; for TAAATCACGTGTTTGA: 0.06 kcal/mol; for AATTGCACGTGGTTCT: -0.02 kcal/mol.
Take TGAGTCACGTGCTTTG: the “relative binding free energy” value worked out at 0.09 kcal/mol.
The same measure for GGCGGCACGTGGGTTA: -0.21 kcal/mol.
With TTCAACACGTGTGAGG the figure was 0.27 kcal/mol; with ATGGCCACGTGTTTTT, -0.04 kcal/mol.
On to AGAATCACGTGTGAGA, for which the “relative binding free energy” value was 0.24 kcal/mol.
With TGAGACACGTGAGTAT the figure was 0.24 kcal/mol; with AATGGCACGTGTGTCT, 0.01 kcal/mol.
With AGCGGCACGTGGGGAA, the “relative binding free energy” value was -0.22 kcal/mol.
As for GGAAACACGTGAGGGG, the “relative binding free energy” value was determined as 0.29 kcal/mol.
On to TGGTACACGTGTTATG, for which the “relative binding free energy” value turned out to be 0.05 kcal/mol.
GGATTCACGTGTCGGT: the “relative binding free energy” value is 0.32 kcal/mol.
For CGTTTCACGTGTGTCA, the “relative binding free energy” value worked out at 0.28 kcal/mol.
The same measure for TGTGCCACGTGGGATA: -0.13 kcal/mol.
The same measure for GTAAGCACGTGGTTGG: -0.21 kcal/mol; for GACTGCACGTGTATGG: 0 kcal/mol; for TAGAGCACGTGGGCAT: -0.19 kcal/mol.
The same measure for GGGGCCACGTGCAGGG: -0.2 kcal/mol.
On to TGCGTCACGTGTAATG, for which the “relative binding free energy” value worked out at 0.21 kcal/mol.
With GGGTGCACGTGTACAT the figure was 0.07 kcal/mol.
With TGGGGCACGTGCTTCA the figure was -0.14 kcal/mol; with GTCTGCACGTGGTGGC, -0.03 kcal/mol; with TTGATCACGTGCGGTG, 0.14 kcal/mol.
With AGATACACGTGAGGGT the figure was 0.16 kcal/mol; with AGAGTCACGTGCGGGA, 0.07 kcal/mol.
For TGGGGCACGTGTAGTA, the “relative binding free energy” value is -0.04 kcal/mol.
The same measure for CGAAGCACGTGTGTGA: 0.03 kcal/mol.
The same measure for TGGTACACGTGGGAGG: 0.03 kcal/mol.
Regarding TGTTTCACGTGGATCT, the “relative binding free energy” value came out at 0.16 kcal/mol.
Take TGAGTCACGTGGTTAC: the “relative binding free energy” value worked out at 0.06 kcal/mol.
GGCATCACGTGGTGGT: the “relative binding free energy” value was 0.22 kcal/mol.
With TTTGGCACGTGAGCGA the figure was -0.06 kcal/mol.
With GGTGACACGTGGCGGC, the “relative binding free energy” value is -0.1 kcal/mol.
The same measure for GGGAGCACGTGTTTCA: 0.01 kcal/mol; for CTGGGCACGTGATGAA: -0.01 kcal/mol.
The same measure for AGGGTCACGTGTACTT: 0.14 kcal/mol; for GGGTTCACGTGTTATT: 0.37 kcal/mol; for AGGTCCACGTGGGTCT: -0.16 kcal/mol.
The same measure for CATATCACGTGGCGGT: 0.24 kcal/mol; for GGTGACACGTGAAGAG: 0.45 kcal/mol.
Turning to TGTAACACGTGAGTTC, the “relative binding free energy” value amounted to 0.26 kcal/mol.
With TGTGCCACGTGTCAGG the figure was -0.07 kcal/mol; with GGCGGCACGTGTATGA, 0.1 kcal/mol.
For the sequence TGATTCACGTGCGTGG, the “relative binding free energy” value was 0.03 kcal/mol.
The same measure for GTTGACACGTGAGTGA: 0.27 kcal/mol; for GAGCACACGTGGAGTG: 0.13 kcal/mol.
On to TGGGGCACGTGTTATT, for which the “relative binding free energy” value is -0.05 kcal/mol.
With AGGATCACGTGGTTTG the figure was 0.18 kcal/mol.
With GGTTTCACGTGAATAT the figure was 0.51 kcal/mol; with AAAGGCACGTGTTGAG, 0 kcal/mol.
With TGATCCACGTGGGGTA the figure was -0.15 kcal/mol; with GCAGGCACGTGAGTAT, 0.23 kcal/mol; with TGGGTCACGTGTTAGA, 0.07 kcal/mol.
Regarding TCGGGCACGTGCGGGT, the “relative binding free energy” value is -0.22 kcal/mol.
Consider AGGGGCACGTGATTAA, for which the “relative binding free energy” value stood at 0 kcal/mol.
The same measure for GATATCACGTGTCGTT: 0.27 kcal/mol; for TTCAGCACGTGATATG: 0.21 kcal/mol; for GGATTCACGTGCAGTG: 0.17 kcal/mol.
Take GCATGCACGTGTGAGT: the “relative binding free energy” value stood at 0.03 kcal/mol.
The same measure for TTTGACACGTGTGGGG: 0.06 kcal/mol; for GTTGCCACGTGTAGTA: -0.01 kcal/mol.
GGAATCACGTGGAGAG: the “relative binding free energy” value was determined as 0.17 kcal/mol.
On to CATGGCACGTGGGGTA, for which the “relative binding free energy” value was -0.32 kcal/mol.
CTTTTCACGTGTTGTG: the “relative binding free energy” value amounted to 0.3 kcal/mol.
The same measure for TGGGTCACGTGGATGT: 0.12 kcal/mol; for TTTGGCACGTGGGCGA: -0.17 kcal/mol.
As to AATTACACGTGTGTTT, the “relative binding free energy” value is 0.09 kcal/mol.
The same measure for GTCCGCACGTGGGTGG: -0.36 kcal/mol; for ATGGTCACGTGTTCCT: 0.32 kcal/mol.
With TATGACACGTGTCGGA the figure was 0.11 kcal/mol; with CGGGCCACGTGAGTTG, 0.11 kcal/mol; with TAGTTCACGTGGGAGG, 0.19 kcal/mol.
With TGTGTCACGTGATTGA the figure was 0.28 kcal/mol; with GGTAACACGTGAGGAT, 0.21 kcal/mol.
Turning to GAATTCACGTGTTGAA, the “relative binding free energy” value was 0.46 kcal/mol.
